# Out of some 310,000 compounds screened, about 2,200 (0.71%) showed an effect of 50% or more. Effects have a minus sign here. The list shows a part of the results.
# Target: human ether-à-go-go-related gene (hERG) potassium channel (human, UniProt Q12809)
# Assay: primary screen, population patch clamp on CHO cells stably expressing hERG
# Chain of human ether-à-go-go-related gene (hERG) potassium channel (Q12809 whole entry, looked up): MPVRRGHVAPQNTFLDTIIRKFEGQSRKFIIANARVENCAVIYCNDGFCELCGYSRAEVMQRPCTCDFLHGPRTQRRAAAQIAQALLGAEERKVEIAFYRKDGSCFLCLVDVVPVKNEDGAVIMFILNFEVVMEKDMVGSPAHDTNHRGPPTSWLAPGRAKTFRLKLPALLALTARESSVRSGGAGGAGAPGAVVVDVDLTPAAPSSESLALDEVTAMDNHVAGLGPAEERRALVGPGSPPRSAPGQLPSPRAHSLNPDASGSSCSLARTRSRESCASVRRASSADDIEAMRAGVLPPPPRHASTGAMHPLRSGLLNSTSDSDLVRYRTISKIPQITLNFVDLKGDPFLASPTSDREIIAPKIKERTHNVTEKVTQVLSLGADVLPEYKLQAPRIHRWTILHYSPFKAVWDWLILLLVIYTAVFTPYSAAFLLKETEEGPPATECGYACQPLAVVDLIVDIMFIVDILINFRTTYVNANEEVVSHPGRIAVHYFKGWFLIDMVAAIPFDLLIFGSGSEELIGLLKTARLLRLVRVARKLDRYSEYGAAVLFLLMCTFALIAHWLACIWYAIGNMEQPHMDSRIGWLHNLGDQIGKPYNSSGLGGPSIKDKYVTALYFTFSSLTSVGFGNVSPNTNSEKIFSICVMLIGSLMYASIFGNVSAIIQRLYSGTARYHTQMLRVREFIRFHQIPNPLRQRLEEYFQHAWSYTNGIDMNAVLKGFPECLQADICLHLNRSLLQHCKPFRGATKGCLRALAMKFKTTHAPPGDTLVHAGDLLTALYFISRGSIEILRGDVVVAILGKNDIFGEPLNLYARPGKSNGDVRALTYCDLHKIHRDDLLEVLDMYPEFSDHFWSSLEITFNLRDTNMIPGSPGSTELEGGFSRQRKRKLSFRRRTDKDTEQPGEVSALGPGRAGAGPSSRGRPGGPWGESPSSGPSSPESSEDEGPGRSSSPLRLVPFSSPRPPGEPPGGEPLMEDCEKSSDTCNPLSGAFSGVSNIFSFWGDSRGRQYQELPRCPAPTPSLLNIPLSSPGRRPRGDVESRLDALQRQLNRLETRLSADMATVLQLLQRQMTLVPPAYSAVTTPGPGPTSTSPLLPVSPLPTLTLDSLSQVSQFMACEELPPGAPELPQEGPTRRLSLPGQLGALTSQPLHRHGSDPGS
row,Compound,"hERG current change (%, negative = inhibition) at 1uM"
1,CC12CC3CC(C)(C1)CC(C(=O)NNC(=O)c1ccncc1)(C3)C2,-7.13%
2,Cc1ccc(C(C(=O)NCC2CCCO2)N(C(=O)c2snc(C(N)=O)c2N)c2ccc(C)c(C)c2)o1 (stereo not shown),7.74%
3,O=C(C1c2ccccc2C(=O)N2CCc3ccccc3C12)N1CCN(Cc2ccccc2)CC1 (stereo not shown),5.55%
4,Cn1cnc2c(cnn2-c2ccccc2)c1=O,17.7%
5,CC(=O)C1=C(O)CC(c2ccccc2)CC1=NCCc1c(C)[nH]c2ccccc12 (stereo not shown),0.452%
6,COc1ccc(CNC(=O)c2ccc(-c3ccccc3)cc2)cc1OC,0.0568%
7,CSc1ccc(CNC(=O)Cn2nc(C)c3c(C)n(-c4ccc(C)cc4)nc3c2=O)cc1,-13.1%
8,CCCCNC(=O)C1CCN(c2nc(OC)nc(OC)n2)CC1,4%
9,COc1ccc(C(=O)Nc2nnc(-c3cccs3)s2)cc1,18.6%
10,C=C1/C(=C\C=C2/CCC[C@]3(C)[C@@H]([C@H](C)/C=C/[C@@H](O)C4CC4)CC[C@@H]23)C[C@@H](O)C[C@@H]1O,2.71%
11,O=C(Nc1ccc(N2CCCC2)cc1)c1cc(Br)ccc1Cl,11.1%
12,CCCCOCCCNS(=O)(=O)c1ccccc1,13.3%
13,CCOC(=O)COc1ccc2c(c1)C(=O)CC(C)(C)O2,5.59%
14,Cc1ccc(C(=O)NC2CCC(C)CC2)o1 (stereo not shown),5.81%
15,COc1ccc(C(O)c2nccn2Cc2ccccc2)cc1OC (stereo not shown),-6.06%
16,O=C(NCc1ccc2c(c1)OCO2)c1ccc2c(=O)n(C3CCCC3)c(=O)[nH]c2c1,14.6%
17,Cc1ccc2nsnc2c1NC(=O)c1cccnc1Cl,15.1%
18,CSc1ccc(C2C(C(=O)c3ccco3)=C(O)C(=O)N2c2nnc(SC)s2)cc1 (stereo not shown),14.7%
19,COc1ccc(Br)c(C(=O)NCC2CCCCC2)c1,4.27%
20,O=C1[C@H]2[C@@H](c3ccc(Cl)cc3)N3C(=O)N(c4cccc(Cl)c4)C(=O)[C@@]3(Cc3ccc(Cl)cc3)[C@H]2C(=O)N1C1CCCCC1,14.6%
21,Cl.N[C@@H]1C[C@H]1c1ccccc1,7.89%
22,Cc1cccc(NC(=O)CNC(=O)c2cccc(S(=O)(=O)NCc3cccs3)c2)c1C,4.01%

row,Compound,"hERG current change (%, negative = inhibition) at 1uM"
1,COc1cc(C(=O)N(CCN(C)C)CC2CCCN(Cc3ccccc3F)C2)ccc1C (stereo not shown),4.35%
2,CC1(CC(=O)N/N=C/c2ccc(OCc3ccc(Cl)cc3Cl)cc2)OCCCO1,11.2%
3,CC(=O)Nc1ccc(C2=NN(C)C(=NCc3ccccc3)SC2)cc1,7.52%
4,Cc1cc(C)c(NC(=S)N2CCC(N(C)CC3CCCO3)CC2)c(C)c1 (stereo not shown),4.7%
5,CCC1CCCCN1CCCNC(=O)c1ccc2c(c1)c(C)c(C)n2CC (stereo not shown),1.67%
6,Cc1n[nH]c(C)c1CNCc1c(C(=O)N2CCCCCCC2)nc2ccc(Cl)cn12,8.06%
7,O=C(CSc1nnnn1-c1ccccc1)Nc1ncc2c(n1)CC(c1ccccc1)CC2=O (stereo not shown),10.4%
8,CC[C@@]12C(=O)N(c3cccc(F)c3)C(=O)N1[C@H](c1cccc(C)c1)[C@@H]1C(=O)N(Cc3ccccc3)C(=O)[C@@H]12,11.6%
9,COc1ccccc1CN(C)c1ccc(S(=O)(=O)N2CCN(C)CC2)cn1,6.05%
10,O=C(C(Cc1ccccc1)NS(=O)(=O)c1ccc(F)cc1)N1CCC2(CC1)OCCO2 (stereo not shown),0.157%
11,CC[C@H](C)[C@H](NC(N)=O)C(=O)Nc1ccccc1F,7.62%
12,C#CCNc1nc(C(C)C)nc2c1nnn2Cc1ccccc1F,11.9%
13,CC[C@H](C)[C@H](NC(=O)OCc1ccccc1)C(=O)OCC(=O)N(C)CC(=O)Nc1ccccc1Cl,0.675%
14,NC(=O)COC(=O)c1ccccc1OCc1ccccc1,12.8%
15,COc1ccccc1-c1nnc(SC(C)C(=O)O)n1-c1ccccc1 (stereo not shown),12.5%
16,CCOc1ccccc1NC=C1C(=O)OC2(CCCCC2)OC1=O,14.4%
17,Cc1ccc(NC(=O)c2ccco2)c(NC(=O)Cc2cccs2)c1,5.15%
18,CC1=C(C)CC(C(=O)NCCCN2CCCC2=O)C(C(=O)O)C1 (stereo not shown),-0.886%
19,O=C(COC(=O)c1ccccn1)Nc1c(Cl)cccc1Cl,5.86%
20,Cc1cc(C)nc(SCc2ccc(C(=O)N/N=C/C3CCCCC3)cc2)n1,12.1%
21,Cc1cc(/C=N/n2c(COc3ccccc3C)nc3ccccc3c2=O)c(O)c([N+](=O)[O-])c1,11.7%

# — PMC4336329 (PLoS ONE, 2015)
